According to PubChem BioAssay AID1508623 (National Center for Advancing Translational Sciences (NCATS), 2021):
Screen size: about 48,000 compounds; about 450 (0.94%) were called active. Not shown: some 19% with an inconclusive outcome. Calls follow the shape of the dose curve; as a rule, active = well fitted inhibition curve with a large enough effect; inconclusive = small, poorly fitted or top-dose-only effect; inactive = no such curve, though single readings can be large or run the other way. The list shows a part of the results.

Test: Primary qHTS for Identification of Small Molecule Inhibitors of Huntingtin Promoter Activity; also: nearly all actives have a fitted effect of over 50% in size
Details: HEK293 HTT promoter firefly luciferase reporter (activity 0% = vehicle and -100% = no light), 24 h; series mostly up to 57.5 µM; activity change, negative = inhibition: at the top concentration
Method in brief: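 Quantitative HTS used concentration series of up to 57.5 uM final on HEK293 luciferase reporter cells, 24 h at 37 degrees C. Readout was Dual-Glo firefly luminescence.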

Activity change, negative = inhibition, inactive:
O=C(Cc1ccc(-c2ccccc2)cc1)NCCS(=O)(=O)N1CCN(c2cccc(Cl)c2)CC1 -28.4%
CCN(C(=O)CSc1nnc(-c2cc3occc3n2C)n1-c1ccccc1C)c1ccccc1 -12.2%
O=C(CN1C(=O)COc2ccc(S(=O)(=O)N3CCOCC3)cc21)NCc1ccc(Cl)cc1 -5.74%
CCCCCCCCCCCCCCCC(=O)OC[C@@H](NC(=O)C(Cl)Cl)[C@H](O)c1ccc([N+](=O)[O-])cc1 4.18%
CC1c2ccccc2CN1NC(=O)c1ccc(Cl)c(S(N)(=O)=O)c1 (stereo not drawn) -12.8%
CCOc1ccc(Nc2sc(C(=O)c3ccc(F)cc3)c(N)c2S(=O)(=O)c2ccc(C)cc2)cc1 -7.5%
Cc1oc2ncn(CC(C)C)c(=O)c2c1C(=O)NCc1cccc(Cl)c1 -17.4%
CC(C)Oc1ccc(CNC(=O)c2cc3cccc4c3n2CC(C)S4)cc1 (stereo not drawn) -12.1%
CCc1ccc(-c2nc3c(c(SCc4ccccc4)n2)Cc2c(CO)cnc(C)c2O3)cc1 -16%
Cc1ccc(Cn2c(C(=O)Nc3ccc(Cl)cc3)cc3sccc32)cc1 3.6%
COc1cc(Cl)c(C)cc1NC(=O)CNC(=O)Cn1ccc2ccccc2c1=O -6.97%
Cc1ccc(C)c(NC(=O)CSc2nc(=O)n(CCN3CCOCC3)c3c2CCC3)c1 -4.66%
COc1cc2c(cc1OC)C(COc1ccc3c(C)cc(=O)oc3c1)N(C(=O)c1ccc(C)cc1)CC2 (stereo not drawn) -28.8%
CC(C)Cn1cc(NC(=O)NCc2ccc(Cl)cc2)c2ccccc2c1=O -6.46%
CCC(=O)N1c2ccccc2CC1C(=O)NCCCN1CCN(c2cccc(Cl)c2)CC1 (stereo not drawn) 1.89%
Cc1c(C(=O)NCc2ccccc2Cl)sc2nc3n(c(=O)c12)CCCC3 28.2%
COc1ccc(Br)c2c1-c1nc(NC(=O)c3ccc(F)cc3)sc1C2 -4.14%
Cc1ccc2c(c1)C(=O)OC(C(=O)Nc1ccc(C(=O)O)cc1)C2 (stereo not drawn) 4.63%
O=C(Nc1ccc(Cl)cc1)c1ccc2oc(=O)n(Cc3ccccc3)c2c1 -29%
COc1ccc(C(=O)CN2CCN(S(=O)(=O)c3ccc(F)cc3)CC2)cc1 -2.81%
COCCCNc1nc2c(c(=O)n(Cc3ccccc3)c(=O)n2C)n1C -5.93%
COc1ccc(-c2cn3c(n2)sc2cc(C(=O)Nc4ccc(F)cc4)ccc23)cc1 17.2%
CC(=O)N1CCC2(CC1)OC(=O)C(C)=C2C(=O)NCc1ccccc1Cl 7.78%
CC(=O)OC1=C(C(C)=O)N(Cc2ccccc2)S(=O)(=O)c2ccccc21 -11.1%
Cc1cc(NC(=O)c2ccc(F)cc2)ccc1-c1cc2ccccc2oc1=O -21.2%
Cc1ccc(Cl)cc1NC(=O)c1csnn1 -11%
CC1CCN(C(=O)CCS(=O)(=O)c2cc3c(cc2Cl)NC(=O)CO3)CC1 -6%
CCOC(=O)c1nnn(CC(=O)NC(=O)Nc2ccccc2F)c1C(=O)OCC -42.2%
CCCCSc1nnc2[nH]c(=O)cc(C)n12 -12.9%
O=C(c1cc(-c2ccc(Br)cc2)n[nH]1)N1CCN(S(=O)(=O)c2ccc(Br)s2)CC1 -29.3%
CCOc1ccc(Nc2nc(N)c(C(=O)c3ccccc3Cl)s2)cc1 -28.7%
Cc1cccc(CC(=O)NC2CC(=O)N(c3ccc4c(c3)OCCO4)C2)c1 (stereo not drawn) 1.13%
Cc1ccccc1CSc1ncc(Cl)c(C(=O)NCc2ccccc2)n1 -6.83%
CCC(=O)N1CCc2cc(Br)cc(S(=O)(=O)CCC(=O)Nc3ccc(CC)cc3)c21 2.86%
Clc1ccc(Cn2c(CN3CCCC3)nc3ccccc32)cc1 -3.19%
O=C(NC1CCCC1)c1ccc2c(=O)n(Cc3ccccc3)c(SCc3ccc([N+](=O)[O-])cc3)nc2c1 3.23%
CCc1ccc(-n2nc(CO)c(C(=O)NC(C)c3ccc(Cl)cc3)n2)cc1 (stereo not drawn) -3.31%
COc1cccc(CNC(=O)CN2C(=O)CCc3cc(S(=O)(=O)N4CCOCC4)ccc32)c1 -24.7%
COc1ccc(OC)c2sc(N(Cc3cccnc3)C(C)=O)nc12 -5.51%
Cc1ccc(Sc2ccc(N3CCCC(C(=O)Nc4ccc(Br)cc4)C3)nn2)cc1 (stereo not drawn) -30.6%
Cc1c(C)n(Cc2ccccc2)c2ccc(C(=O)N3CCN(c4ccccc4F)CC3)cc12 -0.493%
Cc1nc2ccn(Cc3cccnc3)c(=O)c2cc1C(=O)N1CCN(c2ccccc2F)CC1 -1.61%
O=C(NCCc1ccc(Cl)cc1)c1cc(-c2ccccc2)n[nH]1 -14%
COc1ccc(SCc2cc(=O)c3ccc(C)c(C)c3[nH]2)cc1 3.4%
CCOc1ccc(-c2nnc(SCC(=O)NC3CCCCC3)nc2-c2ccc(OCC)cc2)cc1 -0.464%
Cc1ccc(C)c(N2CCN(c3nc4ccccc4c(=O)n3-c3ccc(Cl)cc3)CC2)c1 -12.3%
COc1ccc2c(c1)Cc1sc(NC(=O)c3ccccc3C)nc1-2 8.31%
COc1cc2nc(N(C)CCCNC(=O)C3CCCO3)nc(N)c2cc1OC (stereo not drawn)
COc1ccc(C2=C(C)C(N3CCC(C(=O)NCc4ccc(C)o4)CC3)=NS2(=O)=O)cc1 -23.7%
CCN(CC)c1ccc(NC(=O)Cn2ncc3c(C)n(Cc4ccccc4F)c(C)c3c2=O)c(C)c1 7.17%
Cc1ccc(NC(=O)Cc2ccc(NC(=O)N3CCCCc4ccccc43)cc2)cc1Cl -14.9%
CC(=O)c1ccc(NC(=O)Nc2ccc3snnc3c2)cc1 23.1%
Cc1cccc(C)c1-n1ncc(C(=O)NCCCN2CCCCC2)c1C1CCN(C(=O)OC(C)(C)C)CC1 -13.8%
CCCCOc1ccc(C(=O)NCC(c2ccc(Cl)cc2)N2CCOCC2)cc1 (stereo not drawn) -5.83%
COC(=O)c1nnn(-c2cccc(C)c2)c1N 14.5%
COc1ccc(-n2c(SCc3nc(-c4ccc(C)cc4)no3)nnc2-c2ccccc2)cc1 -8.27%
CC(C)Oc1ccc(CNC(=O)CN2C(=O)CCn3nc(-c4cn(C)c5ccccc45)cc32)cc1 5.43%
CC1CN(C(=O)Nc2ccc(C(=O)NCc3ccccc3F)cc2)c2ccccc2S1 (stereo not drawn) -34.6%
COC(=O)c1ccc(NC(=O)CSc2n[nH]c(-c3ccccc3)n2)cc1 0.484%
Fc1ccccc1N1CCN(Cc2nnc(-c3ccc4c(c3)OCO4)o2)CC1 -8.94%
Cc1ccccc1OCC(=O)Nc1ccc2oc(-c3ccc(F)cc3)nc2c1 9.4%
C[N+](C)(C)CCCCCCCCCC[N+](C)(C)C 1.69%
COc1ccc(C)cc1NC(=O)COc1cc(=O)n(C)c2ccccc12 -6.87%
CCc1ccc(NC(=O)CN(C)S(=O)(=O)c2ccc3c(c2)c(=O)n(C)c(=O)n3C)cc1 -12%
CCOC(=O)c1cc2c(=O)n3ccccc3nc2n(Cc2ccco2)c1=NC(=O)c1ccc(Br)cc1 -18.3%
Cc1ccc(NC(=O)c2nnn(Cc3ccccc3)c2N)cc1C 39.8%
CCN1CCN(CC(=O)Nc2ccc(-c3cccc4c(=O)cc(N5CCOCC5)oc34)c3sc4ccccc4c23)CC1 -21.2%
Cc1ccccc1-c1nc(SCC(=O)NCc2ccc(F)cc2)c2c(=O)n(C)c(=O)n(C)c2n1 9.66%
COc1ccc(-c2nc(-c3cc4cc(Br)ccc4oc3=O)cs2)cc1 -1.84%
COc1ccccc1N1CCN(c2nc3ccccc3n3cnnc23)CC1 5.67%
O=C(CCn1nc(-c2ccccc2)c2ccccc2c1=O)Nc1ccccc1 -24.9%
Cc1cccc(C)c1NC(=O)Nc1csc2c1CCCC2 -17.5%
Cc1ccc2nc(N(CCCN(C)C)C(=O)c3ccco3)sc2c1 18.8%
Cc1ccc(-n2nc(CO)c(C(=O)NCc3ccccn3)n2)cc1 -7.66%
CC(=O)Nc1ccc(NC(=O)c2cc(=O)c3ccccc3o2)cc1 1.63%
COc1ccc(OCc2ccc(-c3nc(C#N)c(N4CCN(c5ccccc5)CC4)o3)o2)cc1 -7.56%
CCOC(=O)c1cc(-c2ccccc2)n(CCC(=O)NCc2ccccc2Cl)c1C -24%
COC(=O)c1sc2cccc(F)c2c1S(=O)(=O)N1CCN(c2cccc(OC)c2)CC1 -32.6%
COc1ccc(Nc2nc3ccccc3nc2NS(=O)(=O)c2ccc(C)cc2)c(OC)c1 -0.705%
O=C(COc1ccccc1F)OCc1cc(=O)n2nc(C3CCCCC3)sc2n1 -5.04%
COc1cccc2cc(S(=O)(=O)c3ccc(F)c(C)c3)c(=O)oc12 -11.5%
O=C1Nc2ccccc2Oc2cc(Oc3cccc(Cl)c3)ccc21 -12%
Cc1nc2nc(SCC(=O)N(C)Cc3ccccc3)nn2c(C)c1Cc1ccccc1Cl -17.7%
Fc1ccc(N2CCN(c3nc4ccccc4c4nc(-c5cccnc5)nn34)CC2)cc1 2.77%
Cc1nnc(N2CCCC(C(=O)NCc3ccccc3)C2)c2nn(-c3ccccc3)c(C)c12 (stereo not drawn) -9.88%
CCCCN(C)CCNC(=O)C1CCCN(S(=O)(=O)c2cccc3nsnc23)C1 (stereo not drawn) -15.3%
Cc1c(Cl)cccc1-c1ccc(CNCCCSc2nnnn2C)o1 -21%
CCc1ccc(S(=O)(=O)c2cn(C)c3cc(N4CCOCC4)c(F)cc3c2=O)cc1 -18.6%
Cc1cn2c(=O)cc(COc3cccc(NC(=O)c4ccc(C(C)(C)C)cc4)c3)nc2s1 -17%
CCOC(=O)C1CCN(CC(=O)Nc2cc(C)c3c(=O)oc4ccccc4c3n2)CC1 -7.19%
N#CC(=C(N)Sc1ccc(N)cc1)c1ccccc1C(F)(F)F -3.8%
O=C(Nc1ccc(OCc2cc(=O)n3c4c(sc3n2)CCCC4)cc1)c1cccc(F)c1 -14.6%
Cc1ccc(NC(=O)CN(C)S(=O)(=O)c2ccc3c(c2)n(C)c(=O)c(=O)n3C)cc1F -7.76%
Cc1ccc(C)c(Nc2nnc(-c3ccc(C)c(S(=O)(=O)N4CCN(C)CC4)c3)c3ccccc23)c1 -13.7%
CCc1ccc(NC(=O)C(=O)NCCc2csc(-c3cccc(F)c3)n2)cc1 -9.91%
CCOc1ccc(NC(=O)CSc2oc(-c3cccs3)nc2S(=O)(=O)c2ccc(C)cc2)cc1 -6.15%
Cc1ccc(C2=CC(c3ccccc3C)n3c(nc4ccccc43)N2)cc1 (stereo not drawn) -1.56%
CCCc1c2oc(C(=O)O)cc(=O)c2cc2c(=O)cc(C(=O)O)n(CC)c12 7.9%
